# Values of other authors as cited in paper PMC6327852 (Journal of cellular physiology, 2016).
# System: GRP78
# Conditions: reduced from >24 h; ref Booth et al., 2012; cited from earlier work
smiles,measurement,value
NCC(=O)Nc1ccc(-n2nc(C(F)(F)F)cc2-c2ccc3c(ccc4ccccc43)c2)cc1 [AR-12],GRP78 protein half-life after treatment,approximately 10 h
